Test results reported in paper PMC9911399, “Two distinct binding modes provide the RNA-binding protein RbFox with extraordinary sequence specificity”.
Positions count from the first letter of the chain named. Some of the results follow.

T1: RBFOX1 RRM RbFoxmut (Fox-RRM*) (Homo sapiens, UniProt Q9NWB1 109-208, R118D;E147R;N151S;E152T)
T1 sequence: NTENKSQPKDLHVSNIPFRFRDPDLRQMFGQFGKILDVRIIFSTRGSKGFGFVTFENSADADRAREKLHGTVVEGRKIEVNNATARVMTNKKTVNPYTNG

B1: GCCCCUG (DNA:RNA)
RNA: GGGAGACCGGAAUUCAGAUUGUCCGCCCCUGUUAAAUCCCGUCGUAGCCACCA
DNA 1: CAATCTGAATTCCGGTCTCCC
DNA 2: TGGTGGCTACGACGGGATT
B2: AGUAUAG (DNA:RNA)
RNA: B1 RNA with G25A, C26G, C27U, C28A, C29U, U30A
DNA 1: CAATCTGAATTCCGGTCTCCC
DNA 2: TGGTGGCTACGACGGGATT
B3: UAAGGAC (DNA:RNA)
RNA: GGGAGACCGGAAUUCAGAUUGUCCUAAGGACUUAAAUCCCGUCGUAGCCACCA
DNA 1: CAATCTGAATTCCGGTCTCCC
DNA 2: TGGTGGCTACGACGGGATT
B4: CGUCACG (DNA:RNA)
RNA: B1 RNA with G25C, C26G, C27U, C29A, U30C
DNA 1: CAATCTGAATTCCGGTCTCCC
DNA 2: TGGTGGCTACGACGGGATT
B5: CCCCCAU (DNA:RNA)
RNA: B1 RNA with G25C, U30A, G31U
DNA 1: CAATCTGAATTCCGGTCTCCC
DNA 2: TGGTGGCTACGACGGGATT
B6: CAUAAUA (DNA:RNA)
RNA: B1 RNA with G25C, C26A, C27U, C28A, C29A, G31A
DNA 1: CAATCTGAATTCCGGTCTCCC
DNA 2: TGGTGGCTACGACGGGATT
B7: GCCCGAG (DNA:RNA)
RNA: B1 RNA with C29G, U30A
DNA 1: CAATCTGAATTCCGGTCTCCC
DNA 2: TGGTGGCTACGACGGGATT
B8: UAGGGGC (DNA:RNA)
RNA: B3 RNA with A27G, A30G
DNA 1: CAATCTGAATTCCGGTCTCCC
DNA 2: TGGTGGCTACGACGGGATT
B9: CAGGCUU (DNA:RNA)
RNA: B1 RNA with G25C, C26A, C27G, C28G, G31U
DNA 1: CAATCTGAATTCCGGTCTCCC
DNA 2: TGGTGGCTACGACGGGATT
B10: AUAAUUA (DNA:RNA)
RNA: B1 RNA with G25A, C26U, C27A, C28A, C29U, G31A
DNA 1: CAATCTGAATTCCGGTCTCCC
DNA 2: TGGTGGCTACGACGGGATT
B11: ACAAGUU (DNA:RNA)
RNA: B1 RNA with G25A, C27A, C28A, C29G, G31U
DNA 1: CAATCTGAATTCCGGTCTCCC
DNA 2: TGGTGGCTACGACGGGATT
B12: GUGGUGU (DNA:RNA)
RNA: B1 RNA with C26U, C27G, C28G, C29U, U30G, G31U
DNA 1: CAATCTGAATTCCGGTCTCCC
DNA 2: TGGTGGCTACGACGGGATT
B13: AUAGAUG (DNA:RNA)
RNA: B1 RNA with G25A, C26U, C27A, C28G, C29A
DNA 1: CAATCTGAATTCCGGTCTCCC
DNA 2: TGGTGGCTACGACGGGATT
B14: CCACCAA (DNA:RNA)
RNA: B1 RNA with G25C, C27A, U30A, G31A
DNA 1: CAATCTGAATTCCGGTCTCCC
DNA 2: TGGTGGCTACGACGGGATT
B15: AGCCAUG (DNA:RNA)
RNA: B1 RNA with G25A, C26G, C29A
DNA 1: CAATCTGAATTCCGGTCTCCC
DNA 2: TGGTGGCTACGACGGGATT
B16: CGUCCCC (DNA:RNA)
RNA: B1 RNA with G25C, C26G, C27U, U30C, G31C
DNA 1: CAATCTGAATTCCGGTCTCCC
DNA 2: TGGTGGCTACGACGGGATT
B17: UGCAACC (DNA:RNA)
RNA: B3 RNA with A26G, A27C, G28A, G29A, A30C
DNA 1: CAATCTGAATTCCGGTCTCCC
DNA 2: TGGTGGCTACGACGGGATT
B18: AUAGUGG (DNA:RNA)
RNA: B3 RNA with U25A, A26U, G29U, A30G, C31G
DNA 1: CAATCTGAATTCCGGTCTCCC
DNA 2: TGGTGGCTACGACGGGATT
B19: UUCCACG (DNA:RNA)
RNA: B1 RNA with G25U, C26U, C29A, U30C
DNA 1: CAATCTGAATTCCGGTCTCCC
DNA 2: TGGTGGCTACGACGGGATT
B20: CUCUCUG (DNA:RNA)
RNA: B1 RNA with G25C, C26U, C28U
DNA 1: CAATCTGAATTCCGGTCTCCC
DNA 2: TGGTGGCTACGACGGGATT
B21: GAAAUCA (DNA:RNA)
RNA: B3 RNA with U25G, G28A, G29U, A30C, C31A
DNA 1: CAATCTGAATTCCGGTCTCCC
DNA 2: TGGTGGCTACGACGGGATT
B22: CGUAAGA (DNA:RNA)
RNA: GGGAGACCGGAAUUCAGAUUGUCCCGUAAGAUUAAAUCCCGUCGUAGCCACCA
DNA 1: CAATCTGAATTCCGGTCTCCC
DNA 2: TGGTGGCTACGACGGGATT
B23: UAAGGUC (DNA:RNA)
RNA: B3 RNA with A30U
DNA 1: CAATCTGAATTCCGGTCTCCC
DNA 2: TGGTGGCTACGACGGGATT
B24: GCGGUCG (DNA:RNA)
RNA: B1 RNA with C27G, C28G, C29U, U30C
DNA 1: CAATCTGAATTCCGGTCTCCC
DNA 2: TGGTGGCTACGACGGGATT
B25: UUGGUCA (DNA:RNA)
RNA: B3 RNA with A26U, A27G, G29U, A30C, C31A
DNA 1: CAATCTGAATTCCGGTCTCCC
DNA 2: TGGTGGCTACGACGGGATT
B26: GUUAUGU (DNA:RNA)
RNA: B22 RNA with C25G, G26U, A29U, A31U
DNA 1: CAATCTGAATTCCGGTCTCCC
DNA 2: TGGTGGCTACGACGGGATT
B27: UAUUUAU (DNA:RNA)
RNA: B3 RNA with A27U, G28U, G29U, C31U
DNA 1: CAATCTGAATTCCGGTCTCCC
DNA 2: TGGTGGCTACGACGGGATT
B28: UGCCAGU (DNA:RNA)
RNA: B22 RNA with C25U, U27C, A28C, A31U
DNA 1: CAATCTGAATTCCGGTCTCCC
DNA 2: TGGTGGCTACGACGGGATT
B29: GUUUACA (DNA:RNA)
RNA: B22 RNA with C25G, G26U, A28U, G30C
DNA 1: CAATCTGAATTCCGGTCTCCC
DNA 2: TGGTGGCTACGACGGGATT
B30: CCGUCAC (DNA:RNA)
RNA: B1 RNA with G25C, C27G, C28U, U30A, G31C
DNA 1: CAATCTGAATTCCGGTCTCCC
DNA 2: TGGTGGCTACGACGGGATT
B31: CGGAACU (DNA:RNA)
RNA: B22 RNA with U27G, G30C, A31U
DNA 1: CAATCTGAATTCCGGTCTCCC
DNA 2: TGGTGGCTACGACGGGATT

Biological target: T1, RBFOX1 RRM RbFoxmut (Fox-RRM*)
Experiment: EMSA; HiTS-Eq, 1 nM pool, 10 min; buffer printed only for the single-RNA assays: 10 mM Tris pH 7.5, 150 mM NaCl, 3.4 mM EDTA, 0.001% NP-40, 30 C
Settings: tags: His6 N-terminal (pET28a); label: 5' 32P
How it was run: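 Purified RbFox RRM (wild type or mutant) was equilibrated for 10 min in 50 µL with 1 nM of a 5′-radiolabelled pool of RNA with 7 randomized nucleotides, its flanks annealed to DNA oligonucleotides, across increasing protein concentrations. Free RNA was separated by 8% native PAGE, excised, reverse-transcribed, PCR-barcoded and sequenced on an Illumina HiSeq 2500. Relative association constants came from read-count changes of each variant against the control reaction, normalised to the cognate motif.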

| Binder | binding signal |
| --- | --- |
| B1 | 0.0977 KA relative to UGCAUGU |
| B2 | 0.112 KA relative to UGCAUGU |
| B3 | 0.0756 KA relative to UGCAUGU |
| B4 | 0.0954 KA relative to UGCAUGU |
| B5 | 0.0698 KA relative to UGCAUGU |
| B6 | 0.122 KA relative to UGCAUGU |
| B7 | 0.101 KA relative to UGCAUGU |
| B8 | 0.0842 KA relative to UGCAUGU |
| B9 | 0.075 KA relative to UGCAUGU |
| B10 | 0.111 KA relative to UGCAUGU |
| B11 | 0.0963 KA relative to UGCAUGU |
| B12 | 0.208 KA relative to UGCAUGU |
| B13 | 0.141 KA relative to UGCAUGU |
| B14 | 0.108 KA relative to UGCAUGU |
| B15 | 0.163 KA relative to UGCAUGU |
| B16 | 0.048 KA relative to UGCAUGU |

| Binder | binding signal |
| --- | --- |
| B17 | 0.0791 KA relative to UGCAUGU |
| B18 | 0.107 KA relative to UGCAUGU |
| B19 | 0.0996 KA relative to UGCAUGU |
| B20 | 0.0547 KA relative to UGCAUGU |
| B21 | 0.0661 KA relative to UGCAUGU |
| B22 | 0.0927 KA relative to UGCAUGU |
| B23 | 0.0829 KA relative to UGCAUGU |
| B24 | 0.17 KA relative to UGCAUGU |
| B25 | 0.14 KA relative to UGCAUGU |
| B26 | 0.268 KA relative to UGCAUGU |
| B27 | 0.0992 KA relative to UGCAUGU |
| B28 | 0.0904 KA relative to UGCAUGU |
| B29 | 0.136 KA relative to UGCAUGU |
| B30 | 0.0656 KA relative to UGCAUGU |
| B31 | 0.0603 KA relative to UGCAUGU |
